# In all, about 5,400 compounds went through this assay and about 190 (3.5%) showed an effect of 50% or more. The list shows a part of the results.
# Test system: Vero-E6
# Experiment: primary screen, phospholipidosis by LipidTOX staining; higher = more effect of the substance
# Details: 10 µM
# Summary of the method: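 Single-concentration screen at 10 μM, with DMSO 0.1 v/v % and amiodarone 10 μM as controls. Read-out is LipidTOX Red phospholipid staining, which tolerates aldehyde fixation, in Vero-E6 cells.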
row,SMILES,result_ITMP [%]
1,C[C@]12CC[C@@H]3c4ccc(O)cc4CC[C@H]3[C@@H]1C[C@@H](O)[C@@H]2O,-1.55
2,Cc1nc(N)sc1-c1ccnc(Nc2ccc(N3CCOCC3)cc2)n1,-4.52
3,O=C(OCCN1CCOCC1)c1cccnc1Nc1cccc(C(F)(F)F)c1,-5.21
4,O=C(O[C@H]1C[C@H]2CC[C@@H](C1)[N+]21CCCC1)C(O)(c1ccccc1)c1ccccc1,-3.78
5,CCCCC(=O)O[C@]1(C(=O)CO)CC[C@H]2[C@@H]3CCC4=CC(=O)CC[C@]4(C)[C@H]3[C@@H](O)C[C@@]21C,6.06
6,CC1(C)C[C@@H]1C(=O)N/C(=C\CCCCSC[C@H](N)C(=O)[O-])C(=O)O,-1.62
7,CCC[C@H](NC(=O)[C@@H]1[C@H]2CCC[C@H]2CN1C(=O)[C@@H](NC(=O)[C@@H](NC(=O)c1cnccn1)C1CCCCC1)C(C)(C)C)C(=O)C(=O)NC1CC1,-3.28
8,Cc1noc(NS(=O)(=O)c2ccc(N)cc2)c1C,-0.76
9,CCc1cccc2c3c([nH]c12)C(CC)(CC(=O)O)OCC3 (centres unmarked),2.2
10,CC[N+](CC)(CC)CCC(O)(c1ccccc1)C1CCCCC1 (centres unmarked),-9.31
11,CSc1ccc(C(=O)/C=C/c2cc(C)c(OC(C)(C)C(=O)O)c(C)c2)cc1,-2.18
12,N=C(N)c1ccc(-c2ccc(-c3ccc(C(=N)N)cc3)o2)cc1,-7.69
13,Cn1cc(S(C)=O)c(=O)c2ccc(F)cc21 (centres unmarked),0.88
14,O=C(O)c1ccccc1C(=O)Nc1ccc(-c2ccccc2)cc1,-1.06
15,O=C(NC(O)C(Cl)(Cl)Cl)NC(O)C(Cl)(Cl)Cl (centres unmarked),-5
16,CC(=O)N1CCN(CCOc2ccc(C3CCN(C4=Nn5c(nnc5C(F)(F)F)CC4)CC3)cc2)CC1,-1.31
17,O=C1N=C(N2CCOCC2)CN1c1ccc(Cl)cc1,-1.04
18,C=CC(=O)Nc1ccc2ncnc(Nc3ccc(OCc4cccc(F)c4)c(Cl)c3)c2c1,5.68
19,CC(=O)NC1CCSC1=O (centres unmarked),-6.65
20,Cc1cc(-c2cc(O)ccc2Cl)cc2nnc(Nc3ccc(OCCN4CCCC4)cc3)nc12,-2.38
21,CC(Oc1c(Cl)cccc1Cl)C1=NCCN1 (centres unmarked),3.59
22,C[N+](C)(CCOc1ccccc1)Cc1ccccc1,5.42

row,SMILES,result_ITMP [%]
1,O=C1NNc2nc(CN3Cc4ccccc4C3)nc3cccc1c23,0.43
2,CC(C)=CCC/C(C)=C/CC/C(C)=C/CC/C(C)=C/CC1=C(C)C(=O)c2ccccc2C1=O,-5.99
3,Cc1cc(C)cc(NC(=O)Nc2ccc(OS(N)(=O)=O)cc2)c1,-9.64
4,O=c1cccc2n1C[C@H]1C[C@@H]2CN(CCN2C[C@@H]3C[C@H](C2)c2cccc(=O)n2C3)C1,-6.09
5,C[C@H](C[C@H](N)C(=O)O)C(=O)O,1.7
6,COc1ccc(/C=C\c2cc(OC)c(OC)c(OC)c2)cc1OP(=O)([O-])[O-],11.6
7,Cc1cccc(-c2n[nH]cc2-c2ccc3ncccc3n2)n1,-5.09
8,CCOC(=O)[C@H](CCc1ccccc1)N[C@@H](C)C(=O)N1CCC[C@H]1C(=O)O,-3.09
9,CCCC[N+]1(C)[C@@H]2C[C@@H](OC(=O)[C@H](CO)c3ccccc3)C[C@H]1[C@@H]1O[C@@H]12 (some centres unmarked),-5.86
10,O=C1CC2(CCCC2)CC(=O)N1CCNCC1COc2ccccc2O1 (centres unmarked),-1.2
11,Cc1cc(Cn2cnc3c2C[C@@H](C(=O)O)N(C(=O)C(c2ccccc2)c2ccccc2)C3)ccc1N(C)C,-1.55
12,CC(=O)N[C@@H](Cc1ccccc1)C(=O)O,2.94
13,Cc1nc2ccc(CN(C)c3ccc(C(=O)N[C@@H](CCC(=O)O)C(=O)O)s3)cc2c(=O)[nH]1,-6.73
14,CCOc1ccc(-n2c(C(C)N(Cc3cccnc3)C(=O)Cc3ccc(OC(F)(F)F)cc3)nc3ncccc3c2=O)cc1 (racemic),-1.28
15,CNC(=O)[C@H](Cc1ccccc1)NC(=O)[C@H](CC(C)C)[C@H](CSc1cccs1)C(=O)NO,0.06
16,CNC(=O)Oc1ccccc1OC(C)C,-0.41
17,Cn1nnnc1SCC1=C(C(=O)O)N2C(=O)[C@@H](NC(=O)[C@H](OC=O)c3ccccc3)[C@H]2SC1,-2.11
18,Oc1ccc2c3c1OC1C(O)CCC4(O)C(C2)N(CC2CCC2)CCC314 (centres unmarked),1.96
19,CCCCCCCCCCCCCCCCCCCCCCCCC(=O)O,-6.72
20,NC(=S)N/N=C/c1ncccc1N,-1
21,CCOC(=O)C1=CCCC[C@H]1S(=O)(=O)Nc1ccc(F)cc1Cl,-5.48
22,COC(=O)C1=C(C)N(C)C(C)=C(C(=O)OC)C1c1ccc(C(F)(F)F)cc1,-7.11
